Measurements as given in the supplement of paper PMC3334620.
In all, about 33,000 sequences were measured (“E-score (-0.5 to 0.5)”: median about -0.016, highest 2% from about 0.31 on). The list shows a part of the results.

Molecular target: Cst6 (UniProt P40535)
Test: PBM E-score (8-mer binding enrichment) (E-score (-0.5 to 0.5)); higher = stronger / more preferred TF binding; most listed sequences are background and not binding sites
Settings: protein concentration: 200 nM; construct: GST-DNA-binding domain
Summary of the method: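 Bound GST-tagged yeast transcription factors, applied at about 100-200 nM to double-stranded universal all-10-mer Agilent arrays, were detected with fluorescent anti-GST. Scans were normalised with masliner. A modified Wilcoxon-Mann-Whitney statistic, the E-score, was assigned to each ungapped eight-base word pooled with its reverse complement by the Universal PBM Analysis Suite.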

Sequence | PBM E-score
AGGTCGAG | -0.158
AGAGATAA | 0.119
CACACACG | 0.148
ATCGGCTG | -0.0495
CGTGGACC | -0.274
AGTTTTTC | 0.089
AACGCAGA | -0.143
CGTTGCCA | 0.0299
GGGCTGAA | -0.0485
ATCGATTC | -0.0173
CCATCAGG | -0.32
ATATAAGG | 0.228
TATCACGA | 0.153
GTAAGAAC | 0.211
CTCGTAAC | 0.159
AATTTCAA | 0.0956
ACAAACCT | -0.0217
GTATGCTA | 0.00634
CCGCTAGG | -0.117
CACCACAA | 0.061
CGGGCACG | -0.0814
AACCTTCT | -0.282
GTAATATA | 0.354
ACGTCGCA | 0.114
ACTGGGCA | -0.16

Sequence | PBM E-score
ATCGGGTC | -0.157
CAGCACTC | -0.0867
ATTCTTAA | 0.0832
CCGGGAAC | -0.0978
CCCTTGCC | -0.336
GATTTTGC | -0.0785
GCGACACC | -0.173
ACCCCTTC | -0.208
CATCGCCG | 0.124
CCACCGGC | -0.25
CGTCTTTA | 0.232
CCCTTTTA | -0.0939
GCCATACC | -0.243
CGGACTAG | -0.236
TCGTCAGA | 0.124
AGGATAGG | -0.178
GAGTTATA | 0.0673
GGCGAGGA | -0.225
GCTATCCA | -0.171
GCGGCAAC | 0.183
ACATGCGA | -0.00307
CGTTAGAG | -0.138
ATGTGGTA | 0.12
GCGAGAGA | -0.179
ACTGATCT | 0.139

Sequence | PBM E-score
GAGGACAC | -0.0612
ACCTCCAC | -0.114
ACAGCGCA | -0.186
ATCCGGCG | -0.0229
ATACGGAT | 0.248
AAATCCAT | 0.245
AGCTACAG | -0.294
ATGTGAAT | 0.0822
AGTTTACA | 0.106
AAAGAAGC | 0.0364
CCTCCTTC | -0.185
CCAAGCGC | -0.0706
CCGACTCC | -0.268
GGTAATCA | 0.114
TAAAAGGA | 0.0668
CTTGCGTC | 0.249
GACGTGGA | 0.197
AAGTAGCC | -0.261
AGAGAGAC | -0.136
GCGAATTA | 0.269
ACAATTGG | -0.0827
GAGCTTGC | -0.272
AACATTTC | 0.148
GGACTATA | -0.0671
CGAATTGC | -0.0408

Sequence | PBM E-score
AGGTACCG | 0.0389
TCGCGGAA | -0.193
GAATCTGC | -0.126
CTACCCCC | -0.411
GAGCCGCA | 0.28
CCGACCGA | -0.17
ATTAGCAC | 0.0142
GGACTGCC | -0.248
CCCACACG | -0.0649
AGGTTTTG | -0.144
CACCCCCG | -0.127
ACCGGTGA | 0.125
GCCCTCCA | -0.19
ATCTACCC | -0.0121
CCATTACG | 0.295
ACAACTCT | -0.104
ACAACTGA | 0.0407
ACTGTGCG | 0.0555
ATTGTGTG | 0.0682
ACCTCCGA | -0.321
AGAGTATC | 0.0606
GGCTTACA | 0.0454
TACGTATA | 0.328
AAGGGACA | -0.141
GGATGGCA | 0.157

Sequence | PBM E-score
GGGGCGAA | -0.0813
AAAGCAAT | 0.182
AACACAAC | 0.139
TGTCCTAA | -0.00039
AAATACCA | 0.0819
GAAGCTAC | -0.093
ACGAGGCC | -0.189
AACGGGGG | -0.128
ATGGTGTG | 0.0348
GCTTTCAC | -0.0161
ACTTCCAC | -0.072
AAGGGAAA | -0.0675
CCGAAGCG | -0.228
ATCCAACA | 0.084
CCTGTATC | 0.0274
GCCGAGTA | -0.233
ATGTTGCG | 0.203
CATACTAG | 0.0942
AGATCAAC | 0.11
AGGTACCA | -0.206
ATCTAAGC | -0.197
ACGTACGA | 0.0335
ATGGCGAG | -0.095
CAGCCGTA | 0.0842
AGTATGGA | -0.0592

Sequence | PBM E-score
CACGATGA | 0.158
AGCCCGTG | -0.277
AATCAGGC | -8e-05
GTTAAAGA | 0.103
ACCCTCCT | -0.25
GATTGAGC | 0.0772
CAGTAGCA | -0.0996
GGTGCAAA | -0.0791
ATACCAGA | -0.0118
ACCAGACG | 0.074
GGGCCGGA | -0.211
CCAAACAC | -0.0522
GCGTGGGA | -0.0642
AACCGCTG | -0.159
AATACCAG | 0.00119
GCATTCTA | 0.124
CGAAAGGA | -0.015
AAAGCACG | -0.0595
CACCCCCA | -0.242
AAGACCTG | -0.183
AAAGCGAG | -0.0116
CTAGCTGA | 0.00129
AGTTATCC | 0.00913
TGCGGGAA | 0.00486
GCTCAACC | -0.198

Sequence | PBM E-score
GAAATTGA | 0.153
AGTAAGAA | 0.225
AAGAGAAA | 0.0634
ACGTGTCC | -0.199
TATGCATA | 0.0156
CTCAGAGA | -0.0636
TGGTTAAA | 0.0964
ACTTTCCA | 0.134
CATTTAGA | 0.136
GGGATTAC | 0.114
GTCATCCA | 0.383
ATTCGGCC | -0.161
AATGGCCG | -0.144
ATATCGTG | 0.0561
AAGGAACA | 0.00613
GAAGTGCC | 0.0369
CGCACATC | 0.0231
CTCTCGTC | 0.0334
CTCACGGA | -0.0452
ATTGGGAC | 0.00586
ACACTGCC | 0.0738
ACAGAGGG | -0.272
ATTGTATC | 0.145
ATCAACCG | -0.093
CCCCAGGC | -0.362

Sequence | PBM E-score
ATAATTAT | 0.342
CCTCTACC | -0.229
ACCTTTCT | 0.0152
ATAAATGC | 0.161
CTTGTGCC | 0.0039
GTGAATAA | 0.293
ATGCTTTG | 0.0423
AGGACCCT | -0.321
CGTAAAAA | 0.228
AGACACAA | 0.149
AAGCAAAC | 0.0375
AGTTTTCA | 0.0851
AAGCTTCT | -0.0653
AGGATGGG | -0.303
ATAGTGTA | 0.211
GGGATACC | -0.314
CACAAGAA | 0.226
GATACCAC | 0.0181
ACGAGCTC | -0.14
TGTCTGAA | 0.0411
ACGCGAGT | 0.0367
GGTCGACA | -0.27
CATAGCAG | -0.162
AGATATAG | 0.137
AGGTCTAG | -0.24

Sequence | PBM E-score
AGCAAGGG | -0.151
GAGCCGGA | -0.158
AAAGAACG | 0.0442
CTTTGTAA | 0.158
AACGTACC | -0.185
ACCATTCC | -0.0416
ACGGACAG | -0.0813
AACTCAGC | -0.0387
CGTAGGGA | 0.0117
CAATGAAA | 0.153
AGTAACCG | 0.119
CGTTGGAA | -0.0227
AACATTGC | -0.1
CCTCCCCA | -0.171
AAGGCTAG | -0.0504
CGTTGGCC | -0.295
ACCCTGTA | -0.12
ACTGTACT | -0.183
ATAATAGG | 0.152
